From PubChem BioAssay AID463173 (ICCB-Longwood Screening Facility, Harvard Medical School, 2010)
The whole screen tested about 52,000 compounds, of which about 4,300 (8.3%) were called active. Rule as the data show it: active = survival mostly below about 52% (no sharp cut-off); inactive = mostly above about 56%. This is one part of the list.

tested on: DeltatarO mutant; experiment: growth inhibition of S. aureus wild type versus tarO mutant, primary screen, teichoic acid synthesis inhibitors, RN4220, OD600 (AID 463173); details: OD600, 18 h, hits give low values, screened at 18.75 µg/mL (by protocol)

Row | SMILES | survival
1 | CC(C)c1ccc(Nc2ncnc3c2nc2n3CCCC2)cc1 | inactive: 85%
2 | COc1cc(NC(=O)CNC(=O)Cn2ccc3ccccc3c2=O)cc(OC)c1OC | inactive: 123%
3 | COc1ccc(-c2cc(C(=O)NCc3ccc(F)cc3)no2)cc1 | inactive: 178%
4 | Cc1cc(C)cc(-n2ccnc2SCC(=O)Nc2ccc(C)cc2C)c1 | inactive: 79%
5 | CC(=O)c1ccc(N2CCN(c3nc4c(S(=O)(=O)c5ccc(C)c(C)c5)nnn4c4ccc(Cl)cc34)CC2)cc1 | inactive: 86%
6 | CCC(=O)N1CCc2cc(Br)cc(S(=O)(=O)CCC(=O)N3CCN(c4ccc(OC)cc4)CC3)c21 | inactive: 78%
7 | CCC(C(=O)Nc1cc(OC)ccc1OC)n1c(=O)c(C(F)(F)F)nc2ccccc21 (stereo not drawn) | inactive: 94%
8 | O=C(CCCn1c(=O)c2ccccc2n(CC(=O)Nc2cccc(Cl)c2)c1=O)NCc1ccc2c(c1)OCO2 | inactive: 76%
9 | CCOc1ccc2oc(=O)cc(CN3CCN(Cc4ccc(F)cc4)CC3)c2c1 | inactive: 83%
10 | Cc1nc2nc(C)c(CCC(=O)NCc3ccccc3)c(C)n2n1 | inactive: 86%
11 | CCOc1ccc2ncc3c(-c4cccc(OC)c4)nn(-c4ccccc4)c3c2c1 | inactive: 100%
12 | Cc1ccc2occ(CC(=O)Nc3ccc(S(=O)(=O)N4CCC(C)CC4)cc3)c2c1 | active: 55%
13 | O=C(CSc1ncc(-c2ccccc2)n1Cc1ccco1)Nc1cccc(I)c1 | inactive: 86%
14 | O=C(Nc1cccc(F)c1)c1oc2ccccc2c1NC(=O)C12CC3CC(CC(C3)C1)C2 | inactive: 72%
15 | CCCCCn1cc2c(c1-c1ccccc1Br)c(=O)n(C)c(=O)n2C | inactive: 80%
16 | O=S(=O)(c1ccccc1)c1nnn2c1nc(NCc1ccccc1)c1cc(Cl)ccc12 | inactive: 80%
17 | CC(C)c1ccc(NC(=O)CCS(=O)(=O)c2ccc3c(c2)CC(=O)N3C)cc1 | inactive: 91%
18 | CCCCNc1ncnc2c1nnn2Cc1ccccc1Cl | inactive: 71%
19 | O=C(NCC1CCCO1)c1ccc(Br)cc1 (stereo not drawn) | inactive: 78%
20 | O=c1c2sc3ccccc3c2n(Cc2ccccc2)c(=O)n1CCc1ccccc1 | inactive: 71%

Row | SMILES | survival
21 | COc1ccc(C)cc1Nc1ncnc2c1c(-c1ccccc1)cn2-c1ccc(C)cc1 | inactive: 80%
22 | CCN(CCCNC(=O)CN1N=C(c2ccccc2)CCC1=O)c1ccccc1 | active: -5%
23 | COc1ccc2ccccc2c1CN1CCN(C(=O)c2ccccc2F)CC1 | inactive: 83%
24 | COc1ccc(S(=O)(=O)N2CCC(C(=O)Nc3cc(C(F)(F)F)ccc3Cl)CC2)cc1 | inactive: 105%
25 | COc1ccc(OC)c2sc(N3CCN(C(=O)C4COc5ccccc5O4)CC3)nc12 (stereo not drawn) | inactive: 88%
26 | COc1cccc(Cc2nc3ccccc3nc2SCC(=O)Nc2cc(OC)ccc2OC)c1 | active: 47%
27 | CCC(C)NC(=O)Cn1c(=O)n(Cc2ccc(C(=O)NCc3ccc(C)cc3)cc2)c(=O)c2ccccc21 (stereo not drawn) | inactive: 94%
28 | CCOc1cc(-c2ccc(OC(=O)c3ccccc3)c(OC)c2)cc(=O)c2c(C)oc(C)c12 | inactive: 89%
29 | CCOCCn1ccc2c(OCC(=O)Nc3cccc(F)c3)cccc2c1=O | inactive: 91%
30 | CCOc1ccccc1CNCCSc1nnnn1C | inactive: 74%
31 | CS(=O)(=O)N1CCc2cc(C(=O)Nc3ccc(C(F)(F)F)cc3)ccc21 | inactive: 76%
32 | CCCN1c2cccc3cccc(c23)S1(=O)=O | inactive: 101%
33 | Cc1ccc(CNC(=O)CSc2nc3n[nH]c(C)c3c(=N)n2-c2ccccc2Cl)cc1 | inactive: 94%
34 | O=C(Nc1ccccc1C(=O)OCc1cc(=O)n2nc(C3CC3)sc2n1)c1cccc(F)c1 | inactive: 73%
35 | Cc1ccc(S(=O)(=O)C(CNC(=O)COc2ccccc2)c2ccco2)cc1 (stereo not drawn) | inactive: 122%
36 | COc1ccc(C2CC3(CC(C)(C)NC(=O)N3)Oc3cc(O)ccc32)cc1 (stereo not drawn) | inactive: 102%
37 | CCCN(CCC)C(=O)Cn1c(=O)n(CCCCCC(=O)NCc2ccccc2Cl)c(=O)c2sccc21 | inactive: 81%
38 | CCCOc1ccc(-c2cc(C(F)(F)F)c(C#N)c(SCCC(=O)O)n2)cc1 | active: 29%
39 | CC(C)CCNC(=O)C(Cc1ccccc1)NS(=O)(=O)c1ccc2c(c1)c(=O)n(C)c(=O)n2C (stereo not drawn) | inactive: 84%
40 | CCOc1ccc(NCc2nc3ccccc3n2CCOc2ccc(C)cc2)cc1 | active: 1%

Row | SMILES | survival
41 | CC(=O)N1CCCc2cc(S(=O)(=O)N3CCCC(C(=O)NCc4ccc(C)cc4)C3)ccc21 (stereo not drawn) | inactive: 84%
42 | O=C(NN=C1CCCCC1)C1CC1c1ccccc1 (stereo not drawn) | inactive: 101%
43 | CN(C)c1nc(N(C)C)nc(N2CC(=O)N(N)C2=N)n1 | inactive: 76%
44 | CCc1nn2c(=O)c(S(=O)(=O)Nc3ccc(C(C)C)cc3)c(C)nc2s1 | inactive: 69%
45 | CCc1ccc(-n2nc3ccc(NC(=O)COc4ccc(OC)cc4)cc3n2)cc1 | inactive: 78%
46 | COc1cccc(Cn2c(CNS(=O)(=O)c3ccc(Cl)s3)nc3cccnc32)c1 | inactive: 88%
47 | O=C(CSc1nc2c(c(=O)[nH]1)CN(Cc1ccc3c(c1)OCO3)CC2)Nc1ccccc1Cl | inactive: 82%
48 | COc1ccccc1CNC(=O)CSc1nnc(C)c2c(C)n(-c3ccccc3)nc12 | inactive: 99%
49 | O=C(O)c1csc(Br)c1Br | inactive: 80%
50 | O=C(Nc1ccc(F)c(Cl)c1)N1CCC(CN2CCOCC2)CC1 | inactive: 89%
51 | Cc1nc2sccn2c(=O)c1S(=O)(=O)Nc1cc(C(F)(F)F)ccc1Cl | active: 69%
52 | Cc1ccccc1OCCCCn1nnc2sc3c(c2c1=O)CCC(C)C3 (stereo not drawn) | inactive: 65%
53 | CCOCCCn1c(SCC(=O)Nc2ccccc2Cl)nc2c(oc3ccccc32)c1=O | inactive: 78%
54 | Cc1ccc(CCNC(=O)c2ccc3c(c2)nc2n3CCOC2)cc1 | inactive: 86%
55 | OCCN(CCO)c1nc2ccccc2[nH]1 | inactive: 93%
56 | COCCNC(=O)c1ccc(-c2nc(CS(=O)(=O)c3ccccc3)c(C)o2)cc1 | inactive: 119%
57 | CCOC(=O)c1ccc(NC(=O)C(CC)Sc2nc(N)cc(N)n2)cc1 (stereo not drawn) | inactive: 105%
58 | COc1ccccc1C(=O)Nc1nnc2n1CCS2 | inactive: 69%
